# Experimental data from ChEMBL document CHEMBL4888484, “Replenishing the malaria drug discovery pipeline: Screening and hit evaluation of the MMV Hit Generation Library 1 (HGL1) against asexual blood stage Plasmodium falciparum ,using a nano luciferase reporter read-out” (2022).
# Values joined by “and” are separate entries in the source; they are usually repeats but may differ in a detail not shown here. Equal entries are not always repeated. Hit rate of the full screen: of about 150,000 compounds, about 540 (0.36%) showed an effect of 50% or more. The list shows a part of the results.
# System: Plasmodium falciparum
# Experiment: Primary screen in NF54 nanoGlo assay, in single point, at 2uM, 72h; a lower Z score goes with more inhibition
# Assay type: functional, Erythrocyte
# Conditions: timepoint 72 hour
Compound,% Inhibition,Z score,Z score (2 µM)
CCCc1nnsc1C(=O)N(C)Cc1nnc(CC)o1,-9%,1.28,
CCN(CC(=O)NC1(C#N)CCCC1)C[C@H](C)C(=O)OC,-12%,1.68,
Cc1cccc(OCc2nc(CC(=O)NCc3ccco3)cs2)c1,-16%,1.37,
CCC[C@]1(COC)CCCN1C(=O)c1cc(N2CCCC2=O)ccc1F,7%,-0.79,
C[C@H](NCCOCCO)c1ncc(Br)cc1Cl,-4%,0.44,
CCc1ncnc(CC)c1C(=O)N1CC[C@@H]2NC(=O)OC[C@H]2C1,-1%,0.09,
CC(C)CC[C@H](NC(=O)CCN1C(=O)CCC1=O)C(C)(C)C,-13%,2.36,
O=C(O)c1ccc(N2CCN(CC(=O)N3CCCC3)CC2)c(NS(=O)(=O)c2ccc(F)cc2)c1,-1%,0.05,
c1cnc(N2CCC[C@H](NC3CCCC3)C2)nc1,5%,-0.55,
COc1cc2c(cc1OC)[C@H](c1cccc(NS(C)(=O)=O)c1)OCC2,1%,-0.14,
CCN(CC)c1ccc(CN(CCN(C)C)C(=O)c2ccccc2C)c(OS(=O)(=O)CC)c1,-3%,0.65,
Cc1nc(C)c(F)c(N2CCN(CCc3cnccn3)CC2)n1,-16%,1.91,
O=S(=O)(/N=C(\c1ccc(Cl)cc1)N1CCOCC1)c1ccc(Br)cc1,-4%,0.54,
COc1ccc(COCC(=O)N2CCCn3ncnc32)cc1,5%,-0.57,
CCN1CCN(c2nc3ncn(CC(=O)Nc4cc(C(F)(F)F)ccc4Cl)c(=O)c3s2)CC1,8%,-1.13,
CC[C@H](C)NC(=O)c1ccc(C)nc1C1CCN(C(=O)c2ccoc2)CC1,-12%,1.94,
CC(NCc1csc(-c2ccccn2)n1)C1CC2CCC1C2 (stereo not drawn),4%,-0.33,
O=C(c1snc(O)c1Cl)N1CC(C2CC2)C1C1CC1 (stereo not drawn),-12%,1.53,
C=CCN(Cc1cccc(C(=O)NC)c1)S(=O)(=O)C(C)(C)C,10%,-1.16,
Cc1cc(C)n(-c2ccc(CCNS(=O)(=O)[C@H]3CCOC3)cc2)n1,-8%,0.72,
Cn1cnnc1-c1cncc(NS(=O)(=O)Cc2ccccc2)c1,-5%,0.58,

Compound,% Inhibition,Z score,Z score (2 µM)
Cc1ncc2n1C[C@@H](C(=O)NCc1ccccc1)CC2,-1%,0.25,
COC1(CNC(=O)NC[C@H](O)c2cc(C)cc(C)c2)CCOCC1,6%,-0.79,
C=CC[C@]1(C(=O)O)CCCN(C(=O)CC2CCC2)C1,2%,-0.32,
Cc1n[nH]cc1CNC(=O)N1CCCC2(CCCCC2)C1,-15%,2,
Cc1ccc(C)c(Cn2c(C(=O)NCc3ccccn3)cc3oc(C)cc32)c1,-3%,0.3,
CC(C)Cc1nc(CNC(=O)Cc2ccncc2)no1,-4%,0.54,
CC(C)Cc1cc(CNC(=O)CN2CCCCCCC2)on1,-5%,0.94,
O=C(Cn1ccc2ccccc21)N1CCO[C@H](c2ccccc2)C1,0%,0.03,
O=C(c1ccc(-c2ccccc2F)o1)N1CCOC2(CCC2)C1,-13%,1.45,
Cc1cc(CNC2CCN(S(C)(=O)=O)CC2)c(C)n1-c1cc(Cl)cc(Cl)c1,-9%,1.24,
OC1(c2ccccn2)CCNCC1N1CC[C@H](Oc2ccccc2)C1 (stereo partly drawn),4%,-0.71,
O=C(Nc1nc2c(ccc3ccccc32)s1)c1cc(-c2ccccc2)nc2ccccc12,-12%,2.13,
COc1ccc(-c2ccnc3cc(C(=O)Nc4ccc(C)cc4)nn23)cc1OC,-17%,1.69,
COCCNC(=O)CCn1cnc2c(-c3ccc(F)cc3)noc2c1=O,1%,-0.09,
O=C(CC1CCCC1)NCCN1C(=O)COC1=O,13%,-1.67,
CC(C)c1nnc(NC(=O)CCCc2ccccc2)s1,-11%,2.07,
CCN1CCN(C(=O)Cn2cc(S(=O)(=O)c3ccc(C)cc3)c3ccccc32)CC1,-18%,2.33,
CC(C)Oc1ccc(C(=O)N2[C@@H]3CC[C@H]2CC(NC(=O)c2ccc(F)cc2)C3)cc1 (stereo partly drawn),-10%,1.79,
Cc1ccc(CC2(NC(=O)CN3CCOC3=O)CC2)cc1,1%,-0.13,
O=C(N[C@H]1CCOc2ccccc21)C1CCC1,-1%,0.18,
O=C(NCC1CCN(C2Cc3ccccc3C2)CC1)c1ccncn1,1%,-0.18,

Compound,% Inhibition,Z score,Z score (2 µM)
CCc1nnc(COC(=O)c2csc(NC)n2)o1,33%,-1.12,
Cc1ccc(C(=O)NCC2CCCCC2)c(C2CCN(Cc3cc(C)c(C)o3)CC2)n1,-3%,0.28,
CCc1ccc(-c2c[nH]c(NC(=O)[C@]3(OC)CCOC3)n2)cc1,5%,-0.59,
CC(CS(C)(=O)=O)N(C)C(=O)C1CCCC2CCCCC21 (stereo not drawn),-9%,1.28,
CCOc1cc(CN2CCC([C@]3(Cc4cccc(OC)c4)NC(=O)N(C)C3=O)CC2)ccc1O,10%,-1.46,
COc1ccc(C[C@@](C)(CO)NC(=O)c2cccn(C3CC3)c2=O)cc1,-6%,0.98,
Cc1nc(-c2nnn(-c3ccc(F)cc3)c2C)sc1C(=O)NCc1ccccc1,-5%,0.91,
O=C(NCc1ccc(Cl)s1)[C@H]1CCC(=O)N(C2CCCCCC2)C1,-2%,0.31,
CCCc1cc(C(=O)NC2CCN(C3CCS(=O)(=O)CC3)CC2)[nH]n1,-14%,1.45,
Cc1cc(N(C)Cc2cnn(C)c2)ncc1Br,8%,-0.96,
Cc1cc(CN[C@H]2CCc3cn[nH]c3C2)c2c(n1)CCCC2,-2%,0.33,
Clc1ccccc1CNCC#Cc1ccccc1,31%,-0.57,
COc1ccc(-c2cc(C(=O)NC[C@H]3CCCO3)on2)cc1OC,-1%,0.2,
CO[C@@]1(C)C[C@@H](O)C12CCN(C(=O)c1scc3c1CCCC3)CC2,11%,-1.93,
Cc1ccc(C(=O)CCC(=O)NCC2(c3ccc4c(c3)OCO4)CCOCC2)cc1C,-9%,1.68,
CC(=O)Nc1cccc(CN(CCC(N)=O)c2ccc(F)cc2)c1,-5%,0.59,
CC(C)(C)c1nnc(CNC(=O)[C@@H]2CCCc3ccccc32)s1,-6%,0.61,
COc1ccc(-c2nn(-c3ccccc3F)cc2CN(C)Cc2nccs2)cc1,-18%,1.96,
FC(F)(F)c1cccc(N2CCN(c3c4c(nc5ncnn35)CCCC4)CC2)c1,-2%,0.24,
C[C@H]1CCCN(Cc2ccccc2-c2nc(CC(=O)O)cs2)C1,-11%,1.43,
CCC(=O)N[C@@H]1c2ccccc2C2(CCN(C(=O)Cc3ccsc3)CC2)[C@H]1OCCOC,-13%,2.02,

Compound,% Inhibition,Z score,Z score (2 µM)
CCC[C@H]1C(=O)NCCN1C(=O)c1cn(CCOC)nn1,-12%,1.64,
O=C(Nc1cc(NS(=O)(=O)c2cccc(F)c2)ccc1F)C1CCCCC1,0%,0.01,
O=C(Nc1ccc2c(c1)OCO2)c1ccc(S(=O)(=O)N2CCCCCC2)cc1,-15%,2.02,
CC(C)Nc1ccc(-c2ccnn2C(C)C)nn1,-10%,1.85,
O=C(NCC1(CO)CC1)C1CC=CCC1c1nc2ccccc2s1 (stereo not drawn),-12%,1.22,
O=C(NCc1cc(C2CC2)on1)N1CCN(C2CCCCC2)CC1,-19%,1.7,
O=C(c1sccc1OC(F)F)N1CCOC2CCCCC21 (stereo not drawn),6%,-0.77,
CC(C)(C)OC(=O)N1CCC[C@H]1C(=O)N1CCc2sccc2C1,-6%,0.85,
CCN(CC)c1ccc(NC(=O)N[C@H]2CC(=O)N(c3ccc4c(c3)OCCO4)C2)c(C)c1,11%,-1.47,
COc1cc(CN(C(=O)c2cccc(N3CCCC3=O)c2)[C@H]2CCCCNC2=O)ccc1OCCc1ccccn1,29%,-3.64,
CC(=O)Nc1ccc(OC(=O)c2cccc(Oc3ccccc3)c2)cc1,5%,-0.98,
CS(=O)(=O)Nc1ccc(-c2cccc3[nH]ccc23)cn1,-11%,1.08,
O=C(NCCN1CCOCC1)c1cnc2c(Cl)cccc2c1O,-10%,1.33,
N#Cc1ccc(C(=O)N2CCC3(CC2)[C@H](O)C[C@@H]3OCCO)cn1,2%,-0.32,
CCC(CC#N)NCC1CCCCN(C(=O)OC(C)(C)C)C1 (stereo not drawn),-5%,0.52,
CCCCn1cc[n+](-c2nc3ccccc3nc2[N-]S(=O)(=O)c2ccc(Cl)cc2)c1,-5%,,0.61 and 0.76
O=c1c2ccccc2ncn1C[C@H]1CC[C@H](C(=O)NCCc2ccccn2)CC1,-11%,1.36,
CC(=O)N1CC[C@H](Oc2ccccc2-c2nc(C3CC3)no2)C1,-12%,2.3,
CC(C)c1cc(C(=O)OCCNc2cccnn2)n(C)n1,-5%,0.38,
COCCN1C[C@]2(CCCN(C(=O)c3cc(C)nc(C)n3)C2)CCC1=O,-3%,0.52,
CC(C)OCCCNC(=O)CC1CCCC1,-10%,1.15,
